Hit rate of the full screen: of about 310,000 compounds, about 2,200 (0.71%) showed an effect of 50% or more. Effects have a minus sign here. The list shows a part of the results.
Each compound was assayed against human ether-à-go-go-related gene (hERG) potassium channel (human, UniProt Q12809) (assay: primary screen, population patch clamp on CHO cells stably expressing hERG).
Sequence of human ether-à-go-go-related gene (hERG) potassium channel (Q12809 whole entry, looked up): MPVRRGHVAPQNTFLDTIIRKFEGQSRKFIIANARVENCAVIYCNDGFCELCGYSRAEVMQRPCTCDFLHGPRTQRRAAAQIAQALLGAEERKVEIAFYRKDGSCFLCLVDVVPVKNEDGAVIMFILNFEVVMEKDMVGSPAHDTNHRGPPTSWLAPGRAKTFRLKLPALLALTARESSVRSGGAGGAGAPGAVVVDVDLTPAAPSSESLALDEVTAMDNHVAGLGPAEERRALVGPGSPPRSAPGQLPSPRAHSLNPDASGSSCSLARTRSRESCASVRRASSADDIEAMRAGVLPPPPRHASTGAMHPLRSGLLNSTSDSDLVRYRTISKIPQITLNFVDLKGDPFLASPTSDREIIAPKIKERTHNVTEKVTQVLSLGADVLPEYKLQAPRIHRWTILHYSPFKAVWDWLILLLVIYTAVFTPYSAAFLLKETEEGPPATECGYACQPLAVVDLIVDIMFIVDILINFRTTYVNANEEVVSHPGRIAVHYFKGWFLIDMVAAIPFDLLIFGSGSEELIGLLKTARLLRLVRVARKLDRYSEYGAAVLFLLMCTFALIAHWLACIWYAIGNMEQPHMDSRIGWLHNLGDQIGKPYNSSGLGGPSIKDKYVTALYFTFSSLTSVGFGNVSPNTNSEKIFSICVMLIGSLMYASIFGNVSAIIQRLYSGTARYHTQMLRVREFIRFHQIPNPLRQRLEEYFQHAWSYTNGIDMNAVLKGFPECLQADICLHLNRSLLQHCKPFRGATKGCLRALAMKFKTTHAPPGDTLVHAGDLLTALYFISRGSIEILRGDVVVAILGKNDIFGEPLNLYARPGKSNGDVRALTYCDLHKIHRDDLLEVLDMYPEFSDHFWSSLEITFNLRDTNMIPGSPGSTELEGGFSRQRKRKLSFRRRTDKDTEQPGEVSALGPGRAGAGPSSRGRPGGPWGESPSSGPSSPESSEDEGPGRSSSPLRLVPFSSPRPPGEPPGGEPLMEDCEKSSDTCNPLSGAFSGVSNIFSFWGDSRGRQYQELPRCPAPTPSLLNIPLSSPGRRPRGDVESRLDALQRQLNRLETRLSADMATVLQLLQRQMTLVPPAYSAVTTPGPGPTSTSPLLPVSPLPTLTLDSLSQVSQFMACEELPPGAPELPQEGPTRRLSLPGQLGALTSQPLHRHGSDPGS

| Structure (SMILES) | hERG current change (%, negative = inhibition) at 1uM [%] |
| --- | --- |
| CCCC1COC(Cn2cncn2)(c2ccc(Cl)cc2Cl)O1 (stereo not drawn) | 10.9 |
| COC(=O)c1ccc(N=NN2CCOCC2)cc1 | 4.07 |
| CCOC(=O)CNS(=O)(=O)c1cc(-c2nnc(Nc3ccc4c(c3)OCO4)c3ccccc23)ccc1C | 11.4 |
| COC(=O)c1sccc1S(=O)(=O)N1CCCC(N(C)CCc2ccccn2)C1 (stereo not drawn) | 1.25 |
| CCn1c(SCc2nc3ccccc3c(=O)[nH]2)nnc1C(C)NC(=O)c1ccccc1 (stereo not drawn) | 11.6 |
| Cc1ccc(C(C)C)c(OCc2nnc(SCC(=O)Nc3ncc(C)s3)n2C)c1 | 4.85 |
| Cc1cc(NC(=O)COC(=O)CSCc2ccc(Cl)c(Cl)c2)no1 | -4.43 |
| COc1cc(C(c2c(C)[nH]n(-c3ccccc3)c2=O)c2c(C)[nH]n(-c3ccccc3)c2=O)cc(OC)c1OC | 20.3 |
| O=C(Nc1ccccc1)Nc1ccc2ccccc2c1 | 12.5 |
| O=C(NCCN1CCCCCC1)C1CCN(S(=O)(=O)N2CCOCC2)CC1 | 7.26 |
| Cc1ccc(S(=O)(=O)Nc2cccnc2Oc2ccc(Cl)cc2)cc1 | 9.46 |
| Cc1nn(-c2ccccc2)c(C)c1N | 24.8 |
| CC(C)(C)[C@H]1C=C(C(=O)NC2CC2)O[C@@H](OCc2ccc(CO)cc2)C1 | 9.32 |
| CC(C)CCNc1c(-c2cccs2)nc2ccccn12 | 1.01 |
| O=C(CN1C(=O)C2CCCN2C(=O)c2ccccc21)Nc1ccccc1-n1cccc1 (stereo not drawn) | -8.74 |
| CCCS(=O)(=O)N1CCCC(C(=O)NCc2ccc(C)cc2)C1 (stereo not drawn) | 10.8 |
| O=C(Cc1ccc(F)cc1)NCCS(=O)(=O)N1CCN(c2cccc(Cl)c2)CC1 | -2.34 |
| CS(=O)(=O)Nc1ccc([N+](=O)[O-])cc1Oc1ccccc1 | 1.22 |
| Cn1c(O)c(N=Nc2ccc(F)cc2)c2ccccc21 | 17.3 |
| NC(=O)c1ccsc1NC(=O)COC(=O)c1ccc(Cl)cc1 | 0.665 |
| CC1CCN(C(=O)c2cc(-c3ccc4c(c3)OCO4)on2)CC1 | 9.04 |
| COc1ccc(N2CCN(C(=O)CNC(=O)c3ccco3)CC2)cc1 | 14.8 |

| Structure (SMILES) | hERG current change (%, negative = inhibition) at 1uM [%] |
| --- | --- |
| O=C(CN1c2cccc3cccc(c23)S1(=O)=O)NCc1ccc2c(c1)OCO2 | 0.394 |
| O=C(NC(=S)NC1CCS(=O)(=O)C1)c1ccccc1Br (stereo not drawn) | 5.64 |
| O=C(N/N=C/c1cc([N+](=O)[O-])ccc1Cl)c1ccc2nc[nH]c2c1 | 2.81 |
| COc1ccc(N2C(=O)C3CCCN3C2c2cccc(OC)c2OC)cc1 (stereo not drawn) | 7.83 |
| CC(C)c1ccc(CNC(=O)C2CC(=O)N(C3CCCCC3)C2)cc1 (stereo not drawn) | 8.37 |
| CCOC(=O)CC(=O)CSc1nc(N)c(C#N)c(-c2ccc(F)cc2)c1C#N | 6.71 |
| CCOc1ccc(NS(=O)(=O)c2ccc(OCC(=O)NCc3ccncc3)cc2)cc1 | -2.31 |
| Cc1cc(=O)[nH]c(N/N=C/c2c(O)n(-c3ccccc3)c(=O)c3ccccc23)n1 | -0.415 |
| Cc1ccc(-c2nnc(NCc3nc4ccccc4[nH]3)c3ccccc23)cc1S(=O)(=O)N1CCCCC1.Cl | 10.2 |
| Cc1ccccc1C(=O)N/N=C1\SCC(=O)N1Cc1ccco1 | 6.67 |
| COCc1cc(C)nc(N/N=C/c2ccc(-c3ccc(C(=O)O)c(Cl)c3)o2)c1C#N | 15.8 |
| CC(=O)c1ccc(NC(=O)c2ccc(S(=O)(=O)N3CCCC3)cc2)cc1 | 14.1 |
| NC/C(=N\O)c1ccc(Cl)cc1Cl | 12.6 |
| COc1ccc(/C=C/C(=O)Nc2cccc(N3CCOCC3)c2)cc1OC | 6.58 |
| CCOC(=O)c1sc(NC(=O)c2ccccc2OCC)nc1C | 5.6 |
| COc1ccc2[nH]c(=O)c(CN(CC3CCCO3)C(=O)Nc3ccccc3)cc2c1 (stereo not drawn) | 6.03 |
| c1ccc(OCc2nnnn2-c2ccccc2)cc1 | 18.9 |
| COc1ccc(-c2cnnn2-c2ccc([N+](=O)[O-])cc2)cc1 | -13.2 |
| CCN(c1ccccc1)S(=O)(=O)c1ccc(Cl)c(NC(=O)CN(C)C2CCN(C)CC2)c1 | 1.47 |
| Cc1cc(C)c(NC(=S)NCCO)c(C)c1 | 4.07 |
| CCc1ccc(CN(C)C(=O)c2cc(COc3c(F)cccc3F)on2)cc1 | 12.6 |
| CCC(C)(C)NC(=O)C(c1ccc(OC)cc1)N(Cc1ccc(OC)cc1)C(=O)CCC(=O)Nc1cc(C)on1 (stereo not drawn) | 16.3 |

| Structure (SMILES) | hERG current change (%, negative = inhibition) at 1uM [%] |
| --- | --- |
| COc1cc(/C=C2\N=C(c3ccccc3)NNC2=O)cc(OC)c1OC | 22.4 |
| Cc1c(C#N)c2ncn(Cc3ccccc3)c(=O)c2n1-c1ccccc1 | 6.89 |
| CCOc1ccc(NC(=S)Nc2cc(C)[nH]n2)cc1 | -2.58 |
| CC1(C)CN(c2ccsc2C(=O)O)C1=O | 10.5 |
| CCOc1ccc(OCC)c(C2C(C#N)=C(N)N(c3cccnc3)C3=C2C(=O)CC(C)(C)C3)c1 (stereo not drawn) | 4.99 |
| O=C(CCS(=O)(=O)c1ccc(Br)cc1)Nc1cc(F)ccc1F | 8.63 |
| O=C(COC(=O)c1ccccc1)Nc1ccc2[nH]c(=O)[nH]c2c1 | -0.225 |
| CCc1ccc(-c2ccc(SCC(=O)Nc3nnc(C)s3)nn2)cc1 | 8.34 |
| O=C(OCCN1CCOCC1)c1ccc(O)cc1 | 8.47 |
| O=C(Nc1ccc(N2CCOCC2)c(Cl)c1)c1ccc(Br)o1 | -5.57 |
| O=C(CCc1ccccc1)NCCc1ccc(F)cc1 | 7.18 |
| CC1CC(OCC(O)CN2CCOCC2)CC(C)(C)C1.Cl (stereo not drawn) | 5.79 |
| O=C(COC(=O)C1=COCCO1)Nc1cccc(S(=O)(=O)N2CCOCC2)c1 | 9.63 |
| CCOc1ccc(N2C(=O)CS/C2=C(\C(Cl)=C(Cl)Cl)[N+](=O)[O-])cc1 | 14.2 |
| COc1ccc(S(=O)(=O)N2CCOC2CNC(=O)C(=O)NCCc2ccccc2OC)cc1C (stereo not drawn) | 8.47 |
| C=CCn1c(C(C)(C)C)nc2ccccc21 | 2.77 |
| COc1ccc(OC)c(S(=O)(=O)n2nc(C)cc2C)c1 | -0.46 |
| CCC(C(=O)Nc1ccc(S(=O)(=O)N2CCN(C)CC2)cc1)c1ccccc1 (stereo not drawn) | 14.4 |
| O=C(Cn1cc(C(F)(F)F)cc(Cl)c1=O)Nc1ccc(N2CCOCC2)cc1 | 3.85 |
| COc1ccc(N2C(=O)C(CC(=O)O)S/C2=N\N=C\c2cccs2)cc1 (stereo not drawn) | 11 |
| Cc1nn(C(C)(C)C)c(OC(=O)c2ccc3c(c2)OCO3)c1Sc1ccccc1 | 10.2 |
| COc1cc(C(=O)N/C(=C/c2ccc(F)cc2)C(=O)NC(C(=O)O)c2ccccc2)cc(OC)c1OC (stereo not drawn) | 4.92 |

| Structure (SMILES) | hERG current change (%, negative = inhibition) at 1uM [%] |
| --- | --- |
| CCCNC(=O)CN1C(=O)NC(c2ccccc2)(c2ccccc2)C1=O | 7.14 |
| Oc1ccc(C[C@@H]2CNCCN2CCc2cc(C(F)(F)F)cc(C(F)(F)F)c2)cc1 | 1.37 |
| Cc1cc(C)c(S(=O)(=O)Nc2c(C)[nH]c(=O)[nH]c2=O)c(C)c1 | 7.62 |
| Cc1cc(S(=O)(=O)NCCN(C)C)c(C)s1.Cl | 8.52 |
| CCN(CC)c1ccc(S(=O)(=O)N2CCOCC2)cc1NC(=O)CNCc1ccccc1.O=C(O)C(=O)O | 1.29 |
| Cc1nc2c(c(=O)n1CCC(C)C)c1nc3ccccc3nc1n2CC1CCCO1 (stereo not drawn) | 4.92 |
| CCN(CC)c1ccc2cc(S(=O)(=O)c3ccc(C)cc3)c(=O)oc2c1 | 12.8 |
| O=C(c1cc2cc(F)ccc2[nH]1)N1CCc2ccccc2C1 | 14.9 |
| Cc1c(-c2ccc(Br)cc2)[n+](=O)c2c(n1[O-])CCCC2 | 19.2 |
| Cc1cccc2cc(CN(Cc3ccc(F)cc3)C(=O)N3CCOCC3)c(=O)[nH]c12 | 1.19 |
| CCC(=O)N1CCN(C(C)=O)C1c1ccccc1 (stereo not drawn) | 15.1 |
| CCC(NC(=S)NC1CCCCC1)c1ccc(C)cc1 (stereo not drawn) | 15.1 |
| O=C(N/N=C/c1ccc(O)cc1O)c1ccncc1 | 11.5 |
| Cc1cc(Cl)ccc1OCCCC(=O)OCC(=O)c1c(N)n(C)c(=O)n(C)c1=O | 4.68 |
| O=C(Nc1ccccc1Cl)C1(c2ccccc2)CC1(Cl)Cl (stereo not drawn) | 9.36 |
| COc1ccc(-n2c(SCC(=O)N3CCCCC3C)nnc2-c2cccnc2)cc1 (stereo not drawn) | -3.62 |
| CCc1ccccc1NC(=O)C1CC(c2ccc(OC)cc2)=NO1 (stereo not drawn) | 11.6 |
| CCOc1cc(N2CCOCC2)c(OCC)cc1NC(=O)COC(=O)CCOc1ccc(C)cc1 | 7.71 |
| CC(C(=O)Nc1ccc(F)c(F)c1)N1CCN(C)CC1.O=C(O)C(=O)O (stereo not drawn) | 16.1 |
| COc1ccccc1C(=O)NCc1nnc(SC(C)C(=O)Nc2nccs2)n1C (stereo not drawn) | 10.9 |
| CCCNC(=O)C(Cc1cccc(C#N)c1)NC(=O)c1ccc(C#N)cc1 (stereo not drawn) | -2.17 |

Source: publication PMC4336329 (PLoS ONE, 2015)
